Source: the supplement of paper PMC11417369
± gives the standard deviation of the averaged measurements. The list shows a part of the results.

What follows are sequences tested on PfAP2-I AP2 domain 3 (GST-tagged) (assay: gcPBM binding intensity (ln(normalized median fluorescence intensity)); higher = stronger DNA binding).
How it was run: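 DNA-binding domains from P. falciparum, fused to GST and produced in E. coli, were put on an Agilent 4 × 180k double-stranded probe array for 1 h in 1× PBS holding 1% milk, 0.2 mg/ml BSA, 0.5% salmon testes DNA and 0.03% Triton X-100. Probes were primer-extended, 36 bp long and drawn from intergenic genomic regions, with negative controls included. After Alexa488 anti-GST antibody detection and a 488 nm scan, binding intensity was set as the highest Masliner-normalised natural-log median intensity across replicate spots of either probe orientation.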

Row | Sequence | gcPBM binding intensity (ln)
1 | AACAACCAAAGGCACACACACAAAAAAAAAAATATA [CACACA_site399] | 8.26 ± 0.15
2 | CTGCGTTTAATATGCGTGCACCTTGGTTTTATATCT [GTGCAC_site9525] | 10.5 ± 0.18
3 | TTATACACAAAAAAAAAAATATATATATATATATAT [XGTACX_negctrl_site5] | 9.44 ± 0.13
4 | TGTTGTATTGAAGCTAAAAAATGAGGCAAAAAAAAA [CACACA_negctrl_site1189] | 8.3 ± 0.43
5 | TTTATATAATATAAATTTTTTTTGCAGTAATAAAAA [TGCATGCA_negctrl_site570] | 8.02 ± 0.52
6 | ACTTCAAAAAAAAAAAAATATATATATATATATTAT [GTGCAC_negctrl_site158] | 7.53 ± 0.33
7 | ATTTATGAGTAATACACACACTTGTGGATATATTAC [CACACA_site7735] | 7.62 ± 0.61
8 | TAAATATCAAGACACACACACAAAAGTGAATAAATA [CACACA_site7723] | 7.55 ± 0.49
9 | AGATATTATTTATATATTTATATATATATATAGATA [TGCATGCA_negctrl_site77] | 7.57 ± 0.26
10 | AGAGAAAAAAAAAATTGTACGTATGTAATAATATGC [XGTACX_site2981] | 8.14 ± 0.52
11 | AAAGTAAAAGAAAGCACACACACATGGATTTATGTA [CACACA_site5997] | 7.87 ± 0.42
12 | TTCTTTTTAAATTACACACACATATATATATGTATA [CACACA_site3515] | 7.96 ± 0.4
13 | TATATATATGTATGTGGTACTTATATTATATACATA [XGTACX_site4550] | 7.89 ± 0.68
14 | TATTTACACCCATGCGCACACATAAATAAATAATAG [CACACA_site5350] | 9.14 ± 0.014
15 | CCATGTAGTGAATAGGTGCATATCAAAAAAAAAAAA | 10.3 ± 0.2
16 | ATACATATGGTGGATCGTACATATATATAATATGTA [XGTACX_site8631] | 7.64 ± 0.47
17 | ACAGAAAATAAAATTTGTACATATATAGAATAAAGA [XGTACX_site3014] | 7.88 ± 0.69
18 | ATAAAACATAAAAATCGTACAAAGGAGGATATAAGG [XGTACX_site420] | 8.37 ± 0.69
19 | AAAATGATGTTAATTACACACATCATCTCATAAACA [CACACA_site3017] | 7.57 ± 0.54
20 | TGGAGGTCAGTTCACAGTACCCAGAAAACTCTACGA [XGTACX_site2561] | 7.43 ± 0.37
21 | ATTATTTATTATTTCTGTACGTATAAAAATAACATT [XGTACX_site1671] | 8.2 ± 0.37
22 | TAACATTATATATATTGTACATAGTAAATATTATAT [XGTACX_site5421] | 7.38 ± 0.48
23 | ATTTAAATTATAAAATGTACATTTAACAAATTTTAT [XGTACX_site770] | 7.65 ± 0.49

Row | Sequence | gcPBM binding intensity (ln)
24 | TGTAATCTGGAGAAAAGTACACAGTATCTGGTAGCT [XGTACX_site2039] | 7.76 ± 0.51
25 | TTTAATTATTAAATGGTGCACTTGAAATATAAAAAT | 11 ± 0.45
26 | CTTTTAATGGTGTAAAGTACTTTCTTAAGGTTCAAA [XGTACX_site8423] | 7.87 ± 0.47
27 | ATATATGGGGCGCAGGAAAAGAGTTTTGGAAATAAA [CACACA_negctrl_site1265] | 8.24 ± 0.51
28 | AAGTTATATAAAGGAACACACATTTGATTTTATTTT [CACACA_site6814] | 7.55 ± 0.64
29 | TATACAACGTTAAGCACACACAAAAAAAATTTAATA [CACACA_site3086] | 8.61 ± 0.2
30 | AAAAAAAAAAAGAAGGAAACATTTGACCAAAAATAT [GTGCAC_negctrl_site404] | 7.82 ± 0.67
31 | ATTCTATACATATATATACACACGTAGTTTCTATTT [CACACA_site2223] | 7.83 ± 0.65
32 | GTTAATATACTTAATACACACACGAATATATATAAA [CACACA_site1181] | 8.04 ± 0.45
33 | ATATACTTACATATTACACACAATATTTTTAAATGT [CACACA_site3627] | 7.95 ± 0.59
34 | AAAGTAAAAAAAAAAACATGCACATATTTACTTTAT [TGCATGCA_site849] | 8.14 ± 0.79
35 | TTTTTTTTGGTTTTCATGCACACAATTTATAAATCT [CACACA_site3107] | 8.9 ± 0.54
36 | AAGGGAATATACCTTACACACAAAAATGCAGATATA [CACACA_site1451] | 7.66 ± 0.52
37 | CTAATCAAAATAAATTAACACACAATTTTAATATTG [CACACA_site7887] | 7.42 ± 0.57
38 | TTCGCTGTTTTAATTAGTACTTATATATAATATTAT [XGTACX_site1149] | 8.21 ± 0.57
39 | TATTGATATATATATATATATATATGTATATACTTA [GTGCAC_negctrl_site111] | 7.88 ± 0.4
40 | CTAAACCTTTTGAGCACACATATATATATATATATA [CACACA_site1782] | 9.53 ± 0.45
41 | TTTTTATTTTCATATGTGCACTTATATATATATATA | 10.82 ± 0.099
42 | TTTTTATATAAGAAAAAATTATAACAATTTGTTAAT [XGTACX_negctrl_site422] | 7.28 ± 0.46
43 | TATTATTATATATATAGTACATAAAATATAAAAAAA [XGTACX_site2060] | 7.79 ± 0.38
44 | ATGTCACAATTTTTCACACACAAAATTTAAATACAT [CACACA_site5168] | 8.04 ± 0.59
45 | TAATTATGCGGACACACACACACACCCAACTAAAAA [CACACA_site5427] | 8.16 ± 0.34
46 | GCATTATTATATATTTGTACATATTTTTTTTTAAAA [XGTACX_site5436] | 8.34 ± 0.35

Row | Sequence | gcPBM binding intensity (ln)
47 | TTTTTTTTTTAAATGTGTCCTCATTATAATATATGT [XGTACX_site5331] | 7.94 ± 0.31
48 | TTTTTTAAATTATATTATAGCAAATAAATATTAAAA [CACACA_negctrl_site1655] | 7.39 ± 0.47
49 | AATAAAACATCATCATGTACAAAATTCGTCTTTGTA [XGTACX_site4821] | 7.5 ± 0.51
50 | AATTATATATAAAGAAGTACTATTTCAAGGAGTTTT [XGTACX_site3837] | 7.69 ± 0.57
51 | TCAAATTTTCAACATTGTACATAAATGTATAAATAT [XGTACX_site6042] | 7.57 ± 0.36
52 | CAAAATATATATGACACACACAAAAAAAGTATATTA [CACACA_site1589] | 7.79 ± 0.42
53 | TATTTGTTCTGATCCTTTTATTCAACTTTTTTTTTT [CACACA_negctrl_site978] | 7.82 ± 0.42
54 | GGCTAAAAGTTGCACACACACAAAAAAAAAAAAAAA [CACACA_site7531] | 8.72 ± 0.11
55 | ACCTTAATTATAATAACACACGAAAAGTGGACACAT [CACACA_site1750] | 8.49 ± 0.41
56 | TATTATAGTCCGACTTTTTAATTTCTTTATTGTTTT [CACACA_negctrl_site1381] | 7.53 ± 0.6
57 | TGAATATTCATATGCACACAAATTAATATACATAAT [CACACA_site442] | 8.675 ± 0.021
58 | TTTTATTTTTAAAATTGTACATTATTATTGTTATTT [XGTACX_site1439] | 7.58 ± 0.53
59 | AAATTTTAATTAGACTGTACACATTTTAGAATAATT [XGTACX_site4819] | 7.67 ± 0.49
60 | TTTTATGTTTTAAAATGTACGTGTCAATGAATAAGT [XGTACX_site6239] | 8.57 ± 0.42
61 | TTTAGATAATTCATTACACACATGTATATATATATA [CACACA_site3483] | 9.26 ± 0.25
62 | TAAGGAAGAAGAAAAAGTACTAAAGGTATAAATGCG [XGTACX_site2628] | 8.02 ± 0.52
63 | AACTTGTATATATACACACACACACTGTCTTTTTTT [CACACA_site1963] | 8.17 ± 0.76
64 | AGAACTTAATGCTGCACACAAAAAAAAGGAAAAATA [CACACA_site1353] | 9.03 ± 0.25
65 | TTCTTTAAAATGATATACGTTATAAATATATATATA [XGTACX_negctrl_site256] | 9.14 ± 0.099
66 | AAAAAAAAGTTGTAAGTGCATGTATATAATAATATT | 8.42 ± 0.54
67 | TGATCACATAATAAATGTACAAAAAAAAATTAATAA [XGTACX_site5867] | 7.53 ± 0.64
68 | CAATTTATAAAGAAAACACACATATACATAAATACA [CACACA_site4829] | 7.87 ± 0.41
69 | TATATATAATATAGTGCATGTAAAAAATAAACCATG [TGCATGCA_site932] | 9.375 ± 0.092

Row | Sequence | gcPBM binding intensity (ln)
70 | TATATATATGGACACACACACATATATATATATTTT [CACACA_site5409] | 8.23 ± 0.67
71 | AAAATTAATATCTTGGTGCATTTTTTAATATTATTA [GTGCAC_site9638] | 9.88 ± 0.13
72 | ACAACTATTCATCATAGTACACGCATGATATATATA [XGTACX_site1539] | 8.16 ± 0.67
73 | TATAAATTAAAACATTGTACATTTTTATTATTATGT [XGTACX_site579] | 7.5 ± 0.54
74 | TATCTTACTTTTTGCACACACTAATATTATTGTTTA [CACACA_site4990] | 9.905 ± 0.007
75 | AAAAAAAAAATATATTGTACAATATTGTAGCTATAT [XGTACX_site7180] | 7.67 ± 0.49
76 | TTCAATAGTAAGTATACACACATATAAATAAATAAA [CACACA_site7295] | 7.83 ± 0.56
77 | TTTTTGTTATTTTTAGTGCAGAAGAATAAATTTTAA | 9.75 ± 0.071
78 | AAAATTTCTTATTTTGTACACACAATAAATATTCAC [CACACA_site8464] | 8.1 ± 0.16
79 | GCAACCTTGTGCAAATGTACAAAAAAAAAAAAAAAA [XGTACX_site679] | 9.29 ± 0.028
80 | TTTTTATTGTTGCTATATTTATAACAATTTATCATA [GTGCAC_negctrl_site75] | 7.88 ± 0.53
81 | ATATTGAAATGTTAATAGAAATATATGGTTAAATTG [XGTACX_negctrl_site212] | 7.53 ± 0.47
82 | ATAATAAGAAAAAAAAAAAAAAAAAAAAAAAAAAAA [TGCATGCA_negctrl_site377] | 8.21 ± 0.95
83 | ATGTATATAAATAGGTGTACATATAAGGTGTTAAGC [XGTACX_site5465] | 8.75 ± 0.69
84 | TACACAAACGTTATACGTACACAGGTTTTTCTTTTA [XGTACX_site5427] | 7.78 ± 0.45
85 | TTATATTTATATTTATGTACATATTTTGTGTGAAAA [XGTACX_site2367] | 8.23 ± 0.028
86 | TCTATTTATATGTATTGTACAATATAGATGTGTATT [XGTACX_site5646] | 8.02 ± 0.47
87 | CCTAAATAATATCTATCACACACGCATATATACATA [CACACA_site8838] | 7.8 ± 0.64
88 | TTCTATATATAATATTGTACTTAATTATTTTATTTT [XGTACX_site2701] | 7.7 ± 0.47
89 | AGTGTATATAGAAACATACACACATATTAATTTTAC [CACACA_site3127] | 7.59 ± 0.45
